According to the supplement of paper PMC4967469:

How the values were obtained:
Assay in all cases: Viability of human cancer cell lines after 72 h of drug (GDSC screen)
Temsirolimus = compound: CO[C@H]1C[C@@H]2CC[C@@H](C)[C@@](O)(O2)C(=O)C(=O)N2CCCC[C@H]2C(=O)O[C@H]([C@H](C)C[C@@H]2CC[C@@H](OC(=O)C(C)(CO)CO)[C@H](OC)C2)CC(=O)[C@H](C)/C=C(\C)[C@@H](O)[C@@H](OC)C(=O)[C@H](C)C[C@H](C)/C=C/C=C/C=C/1C [Temsirolimus]; conditions: top dose 0.2 µM
Procedure: (§1)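 Human cancer cell lines in 384-well plates, medium with 10% serum, drug for 72 h over a 256-fold dose range (nine 2-fold or five 4-fold steps up to the top dose). Adherent lines were fixed and stained with the nucleic acid dye Syto60, suspension lines read with resazurin; signal relative to control wells, capped at 0 and 100%. One two-parameter sigmoid per drug and line, fitted in a mixed model over all curves with the slope shared within a line.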

SL 0101-1 = compound: CC(=O)O[C@@H]1[C@@H](OC(C)=O)[C@@H](O)[C@H](Oc2c(-c3ccc(O)cc3)oc3cc(O)cc(O)c3c2=O)O[C@H]1C [SL 0101-1]; conditions: top dose 10 µM; top dose inferred
Procedure: as §1

XMD15-27 = compound: C=CC(=O)Nc1ccc(C(=O)c2sc(Nc3ccc(N4CCN(C)CC4)cc3OC)nc2N)cc1 [XMD15-27]; conditions: top dose 10.24 µM; top dose inferred
Procedure: as §1

Cell Line | AUC (Temsirolimus) | IC50 (Temsirolimus) [µM] | AUC (SL 0101-1) | IC50 (SL 0101-1) [µM] | AUC (XMD15-27) | IC50 (XMD15-27) [µM]
Ramos-2G6-4C10 (Burkitt lymphoma, suspension) | 0.059 | < 0.000781 | 0.974 | > 10 | 0.986 | > 10.2
PCI-15A (head and neck, adherent) | 0.954 | > 0.2 | 0.896 | > 10 | 0.987 | > 10.2
SK-MEL-30 (melanoma, adherent) | 0.865 | 0.194 | 0.967 | > 10 | 0.986 | > 10.2
JHH-1 (liver, adherent) | 0.751 | 0.0709 | 0.963 | > 10 | 0.985 | > 10.2
A253 (head and neck, adherent) | 0.879 | 0.197 | 0.989 | > 10 | 0.988 | > 10.2
AsPC-1 (pancreas, adherent) | 0.873 | > 0.2 | 0.92 | > 10 | 0.974 | > 10.2
CTV-1 (acute myeloid leukaemia, suspension) | 0.657 | 0.031 | 0.991 | > 10 | 0.969 | > 10.2
A704 (kidney, adherent) | 0.864 | 0.166 | 0.989 | > 10 | 0.988 | > 10.2
SW954 (urogenital system, adherent) | 0.88 | > 0.2 | 0.965 | > 10 | 0.957 | > 10.2
A2780 (ovary, semi-adherent) | 0.613 | 0.0259 | 0.961 | > 10 | 0.89 | > 10.2
NCI-H1648 (lung adenocarcinoma, adherent) | 0.859 | 0.183 | 0.929 | > 10 | 0.978 | > 10.2
PANC-04-03 (pancreas, adherent) | 0.901 | > 0.2 | 0.943 | > 10 | 0.977 | > 10.2
TMK-1 (stomach, adherent) | 0.834 | 0.141 | 0.986 | > 10 | 0.986 | > 10.2
SNU-407 (large intestine, adherent) | 0.731 | 0.0644 | 0.979 | > 10 | 0.983 | > 10.2
COLO-824 (breast, adherent) | 0.988 | > 0.2 | 0.957 | > 10 | 0.973 | > 10.2
KARPAS-422 (B-cell lymphoma, suspension) | 0.556 | 0.0178 | 0.974 | > 10 | 0.975 | > 10.2
COLO-320-HSR (large intestine, suspension) | 0.976 | > 0.2 | 0.992 | > 10 | 0.991 | > 10.2
NCI-H1944 (lung adenocarcinoma, adherent) | 0.773 | 0.0833 | 0.985 | > 10 | 0.968 | > 10.2

Cell Line | AUC (Temsirolimus) | IC50 (Temsirolimus) [µM] | AUC (SL 0101-1) | IC50 (SL 0101-1) [µM] | AUC (XMD15-27) | IC50 (XMD15-27) [µM]
LoVo (large intestine, adherent) | 0.93 | > 0.2 | 0.953 | > 10 | 0.98 | > 10.2
COR-L95 (small cell lung carcinoma, adherent) | 0.962 | > 0.2 | 0.987 | > 10 | 0.986 | > 10.2
TE-8 (oesophagus, adherent) | 0.829 | 0.136 | 0.98 | > 10 | 0.985 | > 10.2
NCI-H1568 (lung adenocarcinoma, adherent) | 0.851 | > 0.2 | 0.969 | > 10 | 0.977 | > 10.2
ES8 (Ewing sarcoma, adherent) | 0.456 | 0.00957 | 0.985 | > 10 | 0.963 | > 10.2
TOV-112D (ovary, adherent) | 0.791 | 0.0906 | 0.971 | > 10 | 0.975 | > 10.2
G-292 Clone A141B1 (osteosarcoma, adherent) | 0.786 | 0.15 | 0.949 | > 10 | 0.933 | > 10.2
RKO (large intestine, adherent) | 0.759 | 0.0652 | 0.947 | > 10 | 0.98 | > 10.2
BICR22 (head and neck, adherent) | 0.492 | 0.0118 | 0.968 | > 10 | 0.983 | > 10.2
MOG-G-UVW (glioma, adherent) | 0.6 | 0.0233 | 0.977 | > 10 | 0.987 | > 10.2
HOP-62 (lung adenocarcinoma, adherent) | 0.742 | 0.0613 | 0.974 | > 10 | 0.984 | > 10.2
DG-75 (Burkitt lymphoma, suspension) | 0.435 | 0.00827 | 0.902 | > 10 | 0.987 | > 10.2
NCI-H596 (lung adenocarcinoma, adherent) | 0.928 | > 0.2 | 0.973 | > 10 | 0.981 | > 10.2
NOS-1 (osteosarcoma, adherent) | 0.815 | 0.143 | 0.973 | > 10 | 0.878 | > 10.2
TE-15 (oesophagus, suspension) | 0.967 | > 0.2 | 0.978 | > 10 | 0.961 | > 10.2
NCI-H2452 (mesothelioma, adherent) | 0.83 | 0.161 | 0.962 | > 10 | 0.984 | > 10.2
KARPAS-299 (anaplastic large cell lymphoma, suspension) | 0.637 | 0.0278 | 0.992 | > 10 | 0.953 | > 10.2

Lines with a small IC50 respond at low doses; fits outside the tested doses are given as limits. AUC sums up the same curve from the lowest dose to the 256-fold higher top dose; values near 1 show little effect. For part of these data: Where the top dose is marked as inferred, it is not printed in the source and was worked back from the curve model.
